Laboratory results as given in a collection of fitness landscapes (doi:10.1126/science.1257360).
The other results are listed elsewhere or left out.

B1: PhoQ; a variant is named by its letters at X, in order, P23837 (parent)
chain: MKKLLRLFFPLSLRVRFLLATAAVVLVLSLAYGMVALIGYSVSFDKTTFRLLRGESNLFYTLAKWENNKLHVELPENIDKQSPTMTLIYDENGQLLWAQRDVPWLMKMIQPDWLKSNGFHEIEADVNDTSLLLSGDHSIQQQLQEVREDDDDAEMTHSVAVNVYPATSRMPKLTIVVVDTIPVELKSSYMVWSWFIYVLSANLLLVIPLLWVAAWWSLRPIEALAKEVRELEEHNRELLNPATTRELTSLVRNLNRLLKSERERYDKYRTTLTDLTHSLKTPLXXLQXXLRSLRSEKMSVSDAEPVMLEQISRISQQIGYYLHRASMRGGTLLSRELHPVAPLLDNLTSALNKVYQRKGVNISLDISPEISFVGEQNDFVEVMGNVLDNACKYCLEFVEISARQTDEHLYIVVEDDGPGIPLSKREVIFDRGQRVDTLRPGQGVGLAVAREITEQYEGKIVAGESMLGGARMEVIFGRQHSAPKDE

Variants of: B1
Assay: enrichment ratio after two sorts for PhoP signalling (ratio (wild type AVST 3.29)); higher = more functional
Details: with PhoP (E. coli)

Variant	enrichment ratio
PVTF	≤ 0.25
WCTY	≤ 0.25
NDGK	≤ 0.25
NTFQ	≤ 0.25
VLKR	≤ 0.25
DRHL	≤ 0.25
YITY	0.713
KYPD	0.584
PLFR	≤ 0.25
FWDL	≤ 0.25
WCIC	≤ 0.25
YSWE	≤ 0.25
RSSR	≤ 0.25
SQFA	≤ 0.25
AVKF	≤ 0.25
FLFM	≤ 0.25
EYET	≤ 0.25
FNFK	≤ 0.25
TKFS	≤ 0.25
RRFH	≤ 0.25
TCPG	≤ 0.25
LSSL	≤ 0.25
RFQY	≤ 0.25
TFER	≤ 0.25

Variant	enrichment ratio
NVVH	≤ 0.25
PQPF	≤ 0.25
SDTC	1.23
RMDM	≤ 0.25
VWSD	≤ 0.25
GKNP	≤ 0.25
SDAS	0.554
WYFN	≤ 0.25
PLTN	≤ 0.25
REQG	≤ 0.25
HKMW	≤ 0.25
SEND	≤ 0.25
MQFI	0.491
WFME	≤ 0.25
VKSC	≤ 0.25
VCLE	≤ 0.25
RRFW	≤ 0.25
WKIT	≤ 0.25
TIYK	≤ 0.25
MPMY	≤ 0.25
EDWR	≤ 0.25
GSTV	9.64
SLTW	7.18
FDAP	≤ 0.25

Variant	enrichment ratio
PYRK	≤ 0.25
WTPF	≤ 0.25
GSND	≤ 0.25
LCNI	1.56
GTLW	3.11
WDNV	≤ 0.25
MRES	≤ 0.25
IQYF	≤ 0.25
SAMP	≤ 0.25
HLCD	≤ 0.25
GQIF	≤ 0.25
DPPH	≤ 0.25
FVCP	≤ 0.25
LWRK	≤ 0.25
PYMG	≤ 0.25
NGSN	≤ 0.25
GISC	11.8
HAGI	≤ 0.25
GRCK	≤ 0.25
MNVI	1.33
PTLC	≤ 0.25
LHEK	≤ 0.25
QSIH	≤ 0.25
SHET	≤ 0.25

Variant	enrichment ratio
AVFR	≤ 0.25
PVVM	≤ 0.25
TCIW	≤ 0.25
MQHL	≤ 0.25
DVYG	≤ 0.25
DPFR	≤ 0.25
FMRE	≤ 0.25
DSDT	≤ 0.25
DQQD	≤ 0.25
MCWA	≤ 0.25
ACQH	≤ 0.25
MYGG	≤ 0.25
LKQF	≤ 0.25
TKLT	15.3
KFYC	≤ 0.25
QTWW	≤ 0.25
SLAV	9.05
AFCQ	≤ 0.25
DTLC	≤ 0.25
YPCA	≤ 0.25
HNIN	≤ 0.25
GISM	18.4
GLYH	≤ 0.25
YHGY	≤ 0.25

Variant	enrichment ratio
MLEF	≤ 0.25
WMER	≤ 0.25
YISV	1.26
AMQH	≤ 0.25
NKGL	≤ 0.25
YAIT	≤ 0.25
WGFD	≤ 0.25
EAAW	≤ 0.25
RHVD	≤ 0.25
ANLS	12
DCWQ	≤ 0.25
GSMS	1.78
WQPS	≤ 0.25
WMVP	≤ 0.25
GILC	4.98
AEVF	14.3
FYYQ	≤ 0.25
GHGI	≤ 0.25
VDCF	≤ 0.25
MFDC	≤ 0.25
FLNR	≤ 0.25
KFQD	≤ 0.25
KINV	≤ 0.25
YNDW	≤ 0.25

Variant	enrichment ratio
QCLH	≤ 0.25
WAPG	≤ 0.25
SSWK	≤ 0.25
ISIP	≤ 0.25
YLIA	≤ 0.25
FIAG	≤ 0.25
SALG	15.9
FWFQ	≤ 0.25
NWHV	≤ 0.25
KSNC	≤ 0.25
GMKS	≤ 0.25
NGCL	≤ 0.25
EHSH	≤ 0.25
VGIN	≤ 0.25
GCST	1.96
YGRN	≤ 0.25
YHIS	≤ 0.25
WSCK	≤ 0.25
GKLS	≤ 0.25
DRSW	≤ 0.25
GTYI	≤ 0.25
GVSC	0.744
GRCS	≤ 0.25
FNDT	≤ 0.25

Variant	enrichment ratio
PSFG	≤ 0.25
MAHG	≤ 0.25
VILV	0.615
KAWG	≤ 0.25
PDVE	≤ 0.25
ELAA	≤ 0.25
TWSR	≤ 0.25
YEWV	≤ 0.25
RGGM	≤ 0.25
KFPD	≤ 0.25
ERLK	≤ 0.25
SLEH	≤ 0.25
QPSN	≤ 0.25
WTIF	≤ 0.25
ICRE	≤ 0.25
MCPW	≤ 0.25
WHCS	≤ 0.25
SHSF	0.587
KPID	≤ 0.25
PVYV	≤ 0.25
PYNH	≤ 0.25
AKTG	≤ 0.25
DEMP	≤ 0.25
RPHD	≤ 0.25

Variant	enrichment ratio
RHSM	≤ 0.25
LTGG	≤ 0.25
SKQA	≤ 0.25
EFFA	≤ 0.25
TILV	1.14
GTFV	≤ 0.25
QHVP	≤ 0.25
DKYP	≤ 0.25
VIQC	≤ 0.25
QIEF	≤ 0.25
DMMC	≤ 0.25
DQLM	≤ 0.25
VVGY	≤ 0.25
NNNK	≤ 0.25
AKKS	≤ 0.25
YWHA	≤ 0.25
EDEY	≤ 0.25
ELMI	≤ 0.25
AQFR	≤ 0.25
VYRT	≤ 0.25
FDVF	≤ 0.25
FTRL	≤ 0.25
IGCY	≤ 0.25
SPPA	≤ 0.25

Variant	enrichment ratio
YQWG	≤ 0.25
QLCD	≤ 0.25
FYWQ	≤ 0.25
STIH	5.19
NWCF	≤ 0.25
RPLW	≤ 0.25
QHSP	≤ 0.25
QSCS	≤ 0.25
TMAY	9.25
GNSQ	≤ 0.25
MKTN	≤ 0.25
LRPS	≤ 0.25
PQQA	≤ 0.25
AKDS	≤ 0.25
WMFY	≤ 0.25
NYKP	≤ 0.25
HEDN	≤ 0.25
ISFE	≤ 0.25
DVQD	≤ 0.25
QVNY	≤ 0.25
SHTQ	≤ 0.25
VVVD	≤ 0.25
RPAF	≤ 0.25
GIRE	≤ 0.25

Variant	enrichment ratio
WHAH	≤ 0.25
ENIK	≤ 0.25
SFMN	≤ 0.25
PGNS	≤ 0.25
FCTI	≤ 0.25
EESQ	≤ 0.25
PWGS	≤ 0.25
ITWN	≤ 0.25
YVSD	≤ 0.25
QCLN	≤ 0.25
QNIK	≤ 0.25
WVLR	≤ 0.25
GYIE	≤ 0.25
FVPM	≤ 0.25
VSAA	≤ 0.25
FQYR	≤ 0.25
WHRG	≤ 0.25
QINN	≤ 0.25
HCRG	≤ 0.25
TWGS	≤ 0.25
ETTP	≤ 0.25
MEAD	≤ 0.25
IHHM	≤ 0.25
VDQP	≤ 0.25

Variant	enrichment ratio
QMSF	1.73
WFQC	≤ 0.25
EALM	7.29
GSQC	≤ 0.25
GIFS	≤ 0.25
EVHR	0.632
QHYA	≤ 0.25
GSTR	≤ 0.25
AELS	10.7
KMIF	≤ 0.25
WFMQ	≤ 0.25
GLNP	≤ 0.25
SQQL	2.28
TARC	≤ 0.25
VGLQ	3.99
RNGP	≤ 0.25
VRGH	≤ 0.25
FMEF	≤ 0.25
DCKS	≤ 0.25
WELE	≤ 0.25
KCSK	≤ 0.25
SKYF	≤ 0.25
MSQI	≤ 0.25
LLAN	≤ 0.25

Variant	enrichment ratio
MDPW	≤ 0.25
HWKY	≤ 0.25
LAVI	≤ 0.25
AKGP	≤ 0.25
VDND	≤ 0.25
DHGH	≤ 0.25
KGTE	≤ 0.25
DFQV	≤ 0.25
YQPH	≤ 0.25
TKAH	10.5
NFNL	≤ 0.25
MPCI	≤ 0.25
RDMK	≤ 0.25
ICYY	≤ 0.25
TPGK	≤ 0.25
RLVV	≤ 0.25
ACHP	≤ 0.25
HFHM	≤ 0.25
PEEH	≤ 0.25
ILPR	≤ 0.25
QEGT	24.3
QDGS	≤ 0.25
PRKR	≤ 0.25
FCTQ	≤ 0.25

Variant	enrichment ratio
GTMN	≤ 0.25
NSCM	≤ 0.25
ELIL	≤ 0.25
FHQD	≤ 0.25
AGMK	9.73
HWEY	≤ 0.25
TRSN	≤ 0.25
HLIP	≤ 0.25
QIAC	≤ 0.25
AQSD	≤ 0.25
WGNG	≤ 0.25
IEVF	≤ 0.25
SECR	10.9
KMKR	≤ 0.25
QQPD	≤ 0.25
VFNL	≤ 0.25
YQDM	≤ 0.25
NCVT	≤ 0.25
